# Whole data set: some 33,000 sequences, median “E-score (-0.5 to 0.5)” near -0.021, cut for the highest 2% near 0.32. The list shows a part of the results.
# Target: T1, Zap1 (UniProt P47043)
# T1 sequence: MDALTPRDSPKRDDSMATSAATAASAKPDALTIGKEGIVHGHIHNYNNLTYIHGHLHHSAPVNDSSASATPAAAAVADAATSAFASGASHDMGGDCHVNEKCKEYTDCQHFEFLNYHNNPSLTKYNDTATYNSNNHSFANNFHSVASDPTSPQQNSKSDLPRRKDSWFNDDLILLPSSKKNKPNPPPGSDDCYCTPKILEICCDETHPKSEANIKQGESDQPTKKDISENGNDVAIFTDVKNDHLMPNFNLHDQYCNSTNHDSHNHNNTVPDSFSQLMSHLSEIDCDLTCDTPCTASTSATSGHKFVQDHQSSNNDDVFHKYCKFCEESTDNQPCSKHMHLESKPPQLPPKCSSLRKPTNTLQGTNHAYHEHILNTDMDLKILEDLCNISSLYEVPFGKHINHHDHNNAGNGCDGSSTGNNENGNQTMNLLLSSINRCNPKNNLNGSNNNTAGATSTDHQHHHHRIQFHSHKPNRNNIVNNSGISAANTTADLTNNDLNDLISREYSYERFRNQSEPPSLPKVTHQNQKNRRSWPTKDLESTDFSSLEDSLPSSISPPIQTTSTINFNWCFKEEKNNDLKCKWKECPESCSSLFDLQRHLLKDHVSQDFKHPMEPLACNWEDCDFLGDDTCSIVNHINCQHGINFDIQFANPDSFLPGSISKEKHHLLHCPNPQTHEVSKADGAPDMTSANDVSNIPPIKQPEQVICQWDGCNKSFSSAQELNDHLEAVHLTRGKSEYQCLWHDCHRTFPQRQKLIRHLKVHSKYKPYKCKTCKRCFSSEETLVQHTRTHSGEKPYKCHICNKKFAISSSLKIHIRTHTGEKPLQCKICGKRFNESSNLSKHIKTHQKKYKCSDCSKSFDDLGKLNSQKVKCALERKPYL
# Assay: PBM E-score (8-mer binding enrichment) (E-score (-0.5 to 0.5)); higher = stronger / more preferred TF binding; most listed sequences are background and not binding sites
# Conditions: protein concentration: 200 nM; construct: GST-full length
# In short: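 Yeast transcription factors carrying a GST tag, as full-length proteins or DNA-binding domains, were produced by PURExpress in vitro transcription/translation. About 100-200 nM protein was applied to universal all-10-mer Agilent arrays, double-stranded by primer extension on fresh or once-stripped slides. Bound protein was detected with fluorescent anti-GST, and scans were normalised with masliner. The Universal PBM Analysis Suite gave each ungapped eight-base word, pooled with its reverse complement, an E-score, a modified Wilcoxon-Mann-Whitney statistic.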
row,Sequence,PBM E-score
1,ACTTGGCA,-0.112
2,GATGGACC,0.135
3,CGACGCAC,-0.0191
4,GTTCTCAA,0.15
5,AGCCTATG,-0.125
6,ACTACAAG,-0.0104
7,ACTTCGCG,0.123
8,CGCGCACG,0.0211
9,CGCTTTCA,-0.0291
10,GACATGAA,-0.00976
11,CGTCTGTC,-0.249
12,CTACAAGA,0.0478
13,AATACTCG,0.00335
14,CAGCTCCG,-0.0528
15,CTCTAACC,0.136
16,TAAGCCTA,0.111
17,AACTATAA,0.0107
18,CTTCTAAC,-0.0941
19,TCTTTGCA,-0.00705
20,AAGCGTGC,-0.0502
21,CATGTAGC,-0.125
22,CCGCAGAA,0.0829

row,Sequence,PBM E-score
1,GCATACGA,-0.0508
2,ATGACCCG,0.269
3,CGTTTTCC,-0.141
4,CTCAGGTC,0.145
5,CACTTGCC,-0.197
6,CTCAACCC,0.201
7,GCCACCAC,0.0146
8,CATGACCC,0.38
9,ATTTATGG,0.217
10,CTGCCTAA,-0.0639
11,GGAACAGA,-0.0482
12,CGATGTTA,0.0463
13,CAACTTAA,0.0997
14,CCTGTGCG,0.00281
15,AGTAGAAA,0.164
16,CACTTACC,0.11
17,CGGGGAAA,-0.0233
18,TGCCATAA,-0.0856
19,GAAGTAAC,0.126
20,TACCCTAA,0.435
21,GTGCAACA,-0.159
22,GTGTGATA,0.0955

row,Sequence,PBM E-score
1,AGGTTTAT,0.15
2,AGGGTACC,0.461
3,GCGACATA,-0.0703
4,GATATCCC,0.0463
5,AATTCACC,0.0819
6,AAGATGGC,-0.0782
7,ATGATCGA,-0.0722
8,ACGGATCC,-0.0798
9,GATATGCA,-0.0775
10,CAATGTGC,-0.197
11,GACGTTAC,0.179
12,GTCTGGAA,-0.0756
13,AAGGAGCG,-0.342
14,AAGACGTG,-0.212
15,GCATAGTA,0.00036
16,AGATTGAT,-0.0444
17,GCCGTCTA,-0.096
18,CATGTTGA,0.128
19,CCATGCTA,-0.245
20,ATCTGTCG,0.00666
21,TCTTCAAA,0.09
22,ATCCCTTA,0.0364

row,Sequence,PBM E-score
1,CACACCTG,-0.0111
2,ATAATGAG,0.0767
3,GCCTACCA,0.0287
4,AGGCACGG,-0.156
5,CTCAGTTC,-0.0178
6,AAACTGAT,-0.111
7,AAGTCTTA,-0.192
8,GTAACAAC,0.234
9,GGCGTGCA,-0.102
10,GCTAACAA,0.0453
11,ACCATAGA,0.141
12,CGTCGATC,-0.0363
13,CTCATCGC,-0.0872
14,GTGCATGA,-0.164
15,CTAACAAA,0.149
16,TACACACA,0.212
17,AACCAGTA,0.164
18,TCCCCGGA,-0.116
19,GAACCGCC,-0.0824
20,CTAGTTTC,0.0706
